Data published in PubChem BioAssay AID588855 (National Center for Advancing Translational Sciences (NCATS), 2011).
In all, about 410,000 compounds went through this assay and about 5,000 (1.2%) were called active. The inconclusive results got no clear call from the source; some entries with a clear call stand among them for comparison. Calls follow the shape of the dose curve; as a rule, active = well fitted inhibition curve with a large enough effect; inconclusive = small, poorly fitted or top-dose-only effect; inactive = no such curve, though single readings can be large or run the other way. A potency beside an inconclusive call is a rough fit, not a confirmed value.

assay: qHTS for Inhibitors of TGF-b; conditions: HepG2 CAGA-GFP TGF-b/SMAD3 reporter, GFP fluorescence, 18 h, TGF-beta stimulated, 500 pg/mL final; series mostly up to 46.1 µM; activity, negative = inhibition: at the top concentration; also: nearly all actives have a fitted effect of over 65% in size
In short: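 HEPG2 CAGA-GFP reporter cells (1000/well, DMEM with 1% FBS) received compounds, then recombinant TGF-beta at 500 pg/mL final for 18 hours at 37 degrees C. Per-cell GFP summed per well was normalised to unstimulated and stimulated DMSO controls before curve fitting.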
% is scaled to controls: 0 for no effect and ±100 for the full control effect; potency is read from the fitted curve at half-maximal effect; tags tell the direction and shape of the fitted curve.

SMILES	Potency	activity, negative = inhibition
CCCCCn1c(N2CCCC2)nc2c1c(=O)n(C)c(=O)n2C	inconclusive: 8.91 µM [inhibitor, single point]	–
COc1ccccc1N(CC(=O)NC1CCCC1)C(=O)c1oc(C(C)(C)C)cc1C	inconclusive: 35.5 µM [inhibitor, single point]	–
O=C(NCCC(=O)N(CCc1ccccc1)Cc1ccccc1)c1ccc(Br)cc1	inconclusive: 25.1 µM [inhibitor, single point]	–
COc1ccc(-c2coc3c(C(=O)NCc4ccco4)cccc23)c(C)c1	inconclusive: 11.2 µM [inhibitor, single point]	–
CCCSCCCNC(=O)c1ccc(C)c(NC(=O)c2nsc3ccccc23)c1	inconclusive: 1.12 µM [inhibitor, full curve, poor fit]	–
O=C1CC(c2ccc(F)cc2)SC(N(c2ccccc2)c2ccccc2)=N1 (stereo not given)	inconclusive: 11.2 µM [inhibitor, partial curve]	–
COc1cccc(Cn2nc(SC)c(S(=O)(=O)c3ccccc3)c2N(C(C)=O)C(C)=O)c1	inconclusive: 11.2 µM [inhibitor, partial curve]	–
CCOc1ccccc1CN1CCNC(=O)C1CC(=O)N(C)Cc1nonc1C (stereo not given)	inconclusive: 22.4 µM [inhibitor, single point]	–
O=C(NC(CSCc1ccccc1)C(=O)N/N=C/c1ccc(O)cc1O)c1ccc([N+](=O)[O-])cc1 (stereo not given)	inconclusive: 25.1 µM [inhibitor, single point]	–
CCOC(=O)C(C(=O)N(C)Cc1ccccc1)C1CCCCC1 (stereo not given)	–	inactive: 1.03%
CC(C)c1ccccc1OCC(=O)Nc1cc(S(=O)(=O)N2CCOCC2)ccc1N1CCCC1	inconclusive: 35.5 µM [inhibitor, single point]	–
COC(=O)c1cn[nH]c1NC(=S)Nc1ccc(Cl)c(Cl)c1	–	inactive: -21%
CC(C)(C)c1ccc(S(=O)(=O)/C=C/C#N)cc1	inconclusive: 15.8 µM [inhibitor, partial curve, poor fit]	–
CN(C(=O)c1cccc(NC(=O)Cc2cccc(NC(=O)C3CCN(C(=O)C4CCCC4)CC3)c2)c1)C1CCC1	inconclusive: 35.5 µM [inhibitor, single point]	–
COc1ccc(/C=N/NC(=O)Cn2c(Cc3ccc(OC)c(OC)c3)nc3ccccc32)cc1	inconclusive: 35.5 µM [inhibitor, single point]	–
N#CCc1c(C#N)c(N)nc(N2CCOCC2)c1C#N	inconclusive: 10 µM [inhibitor, partial curve]	–
CC1CCc2ccc(F)cc2N1S(=O)(=O)c1cccs1 (stereo not given)	inconclusive: 15.8 µM [inhibitor, single point]	–
O=S(=O)(c1cccc2nsnc12)N1CCc2ccccc21	inconclusive: 1.12 µM [inhibitor, partial curve, poor fit]	–
COc1ccc(CS(=O)/C(Cl)=C(/Cl)C(=O)Nc2ccc(OC)nc2)cc1 (stereo not given)	active: 3.16 µM	–
CCOc1ccc(C(=O)N(Cc2ccc(C(C)C)cc2)Cc2ccco2)cc1	inconclusive: 1 µM [inhibitor, full curve, poor fit]	–
COc1cc(NC(=O)c2cccc(Cl)c2Cl)ccc1NC(=O)c1cc2ccccc2o1	–	inactive: -13.9%
CCOc1ccc(C(=O)C2CCN(CC(=O)Nc3ccccc3N3CCOCC3)CC2)cc1	active: 14.1 µM	–

SMILES	Potency	activity, negative = inhibition
CCC(=O)N1CCc2cc(Br)cc(S(=O)(=O)CCC(=O)Nc3cccc(Cl)c3)c21	–	inactive: -8.56%
COc1ccc(NC(=O)CN2CCN(c3ccccc3F)CC2)cc1	inconclusive: 0.447 µM [inhibitor, full curve]	–
CCOC(=O)C1CCCN(C(=O)C2CCN(S(=O)(=O)c3ccc4ccccc4c3)CC2)C1 (stereo not given)	inconclusive: 0.562 µM [inhibitor, full curve, poor fit]	–
Cc1ccc2ccccc2c1C(O)c1ncc(-c2ccc(Cl)cc2)[nH]1 (stereo not given)	inconclusive: 35.5 µM [inhibitor, single point]	–
CN(CC(=O)Nc1ccc(OC(F)F)cc1)S(=O)(=O)/C=C/c1ccccc1	inconclusive: 22.4 µM [inhibitor, single point]	–
Cc1ccc(S(=O)(=O)NCCNc2ccc([N+](=O)[O-])cc2C(F)(F)F)cc1	inconclusive: 20 µM [inhibitor, single point]	–
COc1ccccc1NC(=O)N(Cc1ccc2c(c1)OCO2)Cc1nc2ccccc2c(=O)[nH]1	–	inactive: -1.92%
Cc1ccccc1NC(=O)Cc1nc(COC(=O)c2ccc(S(C)(=O)=O)c([N+](=O)[O-])c2)cs1	active: 12.6 µM	–
CC(C)C(N)c1csc(NC(=O)Nc2ccccc2C(C)(C)C)n1 (stereo not given)	inconclusive: 28.2 µM [inhibitor, single point]	–
C/C(=N\O)c1oc2ccc3c(C)cc(=O)oc3c2c1C	–	inactive: 1.8%
Cc1ccc(NC(=O)CCCc2nc(-c3ccco3)no2)cc1Cl	inconclusive: 35.5 µM [inhibitor, single point]	–
CC(=O)/C(=N\Nc1ccccc1Cl)Sc1cccc2cccnc12	inconclusive: 35.5 µM [inhibitor, single point]	–
CCn1cc(C2=NC(C(C)C)CO2)c2ccccc21 (stereo not given)	–	inactive: 2.29%
C[C@H](NC(=O)c1nc[nH]c1C(=O)N[C@@H](Cc1ccccc1)C(=O)OC(C)(C)C)c1ccccc1	inconclusive: 35.5 µM [inhibitor, single point]	–
CCN(C(=O)c1ccc2c(Cl)c3c(nc2c1)CCC3)c1ccc(C)c(C)c1	inconclusive: 31.6 µM [inhibitor, single point]	–
O=C(COc1ccc2c(c1)C(=O)CC1(CCCCC1)O2)NCc1ccccn1	inconclusive: 25.1 µM [inhibitor, single point]	–
Cc1ccccc1-n1c(=S)[nH]c2nc3c(cc2c1=O)COC(C)(C)C3	–	inactive: -1.76%
COc1cccc(NC(=O)C(Cc2ccccc2)N2Cc3ccccc3C2=O)c1 (stereo not given)	–	inactive: -24.1%
CCc1nnc(NC(=O)CN2CCN(c3ccccc3OC)CC2)s1	–	inactive: -16.7%
CN1C(=O)C(O)(CC(=O)/C=C\c2ccc3c(c2)OCO3)c2ccccc21 (stereo not given)	inconclusive: 1.26 µM [inhibitor, partial curve, poor fit]	–
Cc1ccc(S(=O)(=O)N(CC2CO2)c2cc(Cl)ccc2Cl)cc1 (stereo not given)	inconclusive: 7.08 µM [inhibitor, partial curve, poor fit]	–
O=C(Nc1ccc(Oc2ccccc2)cc1)C1CCN(c2c3c(nc4ncnn24)CCC3)CC1	inconclusive: 11.2 µM [inhibitor, partial curve]	–

SMILES	Potency	activity, negative = inhibition
Cc1cccc(-c2nn(-c3ccccc3)cc2C(=O)N2CCN(C3CCS(=O)(=O)C3)CC2)c1 (stereo not given)	–	inactive: -6.94%
Cc1ccc(C)c(NC(=O)CSc2nccn2-c2cccc(C)c2C)c1	inconclusive: 15.8 µM [inhibitor, single point]	–
COc1ccc(C(=O)Nc2ccccc2-c2nc3ccccc3s2)cc1OC	–	inactive: -2.44%
CC(/C=N/NC(=O)c1cc(-c2ccc(Cl)cc2)nc2ccccc12)=C\c1ccco1	inconclusive: 1.58 µM [inhibitor, full curve]	–
O=C(CSc1nnc(-c2ccco2)o1)N1c2ccccc2CCc2ccccc21	inconclusive: 3.16 µM [inhibitor, single point]	–
O=C(N(c1ccccc1)c1ccccc1)N(c1ccccc1)c1ccccc1	active: 15.8 µM	–
CC(=O)Nc1ccc(NC(=O)c2nc(S(=O)(=O)Cc3ccc(F)cc3)ncc2Cl)cc1	active: 2.82 µM	–
COc1cccc(NC(=O)c2ccc3c(c2)OCO3)c1	–	inactive: -23.7%
O=S(=O)(c1ccccc1Cl)N1CCC(O)(c2ccc3c(c2)OCO3)CC1	inconclusive: 14.1 µM [inhibitor, partial curve, poor fit]	–
COc1ccc(S(=O)(=O)N2CCC(Oc3ccc(-n4cnnn4)cc3)CC2)cc1	inconclusive: 28.2 µM [inhibitor, single point]	–
Brc1ccc(CNc2nc3ccccc3n2CCN2CCCCC2)cc1	inconclusive: 35.5 µM [inhibitor, partial curve, poor fit]	–
COc1ccc(NC(=O)CCCCCN2C(=O)[C@@H]3Cc4ccccc4CN3C2=O)cc1Cl	inconclusive: 7.94 µM [inhibitor, partial curve, poor fit]	–
O=c1[nH]nnc2c1ncn2C1OC(CO)C(O)C1O (stereo not given)	inconclusive: 35.5 µM [inhibitor, single point]	–
CCOc1ccc2c(c1)c(=O)c(C(=O)c1ccc3c(c1)OCO3)cn2Cc1ccc(F)cc1	–	inactive: -5.89%
COc1cc(/C=C(\C#N)c2nc3ccc(C)cc3[nH]2)ccc1OCc1ccc(C)cc1	inconclusive: 6.31 µM [inhibitor, single point]	–
O=C(CC1Oc2ccccc2NC1=O)NCc1ccc(Cl)cc1 (stereo not given)	inconclusive: 5.62 µM [inhibitor, single point]	–
CCc1ccc(NC(=O)NNC(=O)c2ccc3ccccc3c2O)cc1	inconclusive: 10 µM [inhibitor, partial curve, poor fit]	–
Cc1ccc(OCCSc2nc(-c3ccccc3C)nc3cc(=O)[nH]n23)cc1Cl	inconclusive: 22.4 µM [inhibitor, single point]	–
Cc1nn(-c2nc(-c3ccccc3)cc(C(F)(F)F)n2)c(C)c1Cl	inconclusive: 35.5 µM [inhibitor, single point]	–
CCc1nn(C(CC)C(=O)NCc2ccc(OC)c(OC)c2)c(=O)c2cc3oc(C)cc3n12 (stereo not given)	inconclusive: 35.5 µM [inhibitor, single point]	–
Cc1cc(C)nc(N/N=C/c2cc3c(cc2[N+](=O)[O-])OCO3)n1	–	inactive: 4.14%
